Data from publication PMC3247280, “Oligomerization of ZFYVE27 (Protrudin) Is Necessary to Promote Neurite Extension” (PLoS ONE, 2011).
These are yes or no findings as the source states them, for the method shown. For some assays here: In cells and extracts the contact can be indirect. Some binding calls cover weakened binding; strength is not graded here. Where a sequence is shown, tags or fusion partners need not be part of it.

What was measured:
[1] = molecular target: T1, ZFYVE27^WT (full-length ZFYVE27, E2- or c-Myc-tagged, in mammalian cells) (human) (UniProt Q5T4F4); experiment: co-IP; NIH-3T3 transiently co-transfected; lysates immunoprecipitated with c-Myc tag antibody, immunoblot with E2 tag antibody; mock with non-specific IgG
T1 sequence: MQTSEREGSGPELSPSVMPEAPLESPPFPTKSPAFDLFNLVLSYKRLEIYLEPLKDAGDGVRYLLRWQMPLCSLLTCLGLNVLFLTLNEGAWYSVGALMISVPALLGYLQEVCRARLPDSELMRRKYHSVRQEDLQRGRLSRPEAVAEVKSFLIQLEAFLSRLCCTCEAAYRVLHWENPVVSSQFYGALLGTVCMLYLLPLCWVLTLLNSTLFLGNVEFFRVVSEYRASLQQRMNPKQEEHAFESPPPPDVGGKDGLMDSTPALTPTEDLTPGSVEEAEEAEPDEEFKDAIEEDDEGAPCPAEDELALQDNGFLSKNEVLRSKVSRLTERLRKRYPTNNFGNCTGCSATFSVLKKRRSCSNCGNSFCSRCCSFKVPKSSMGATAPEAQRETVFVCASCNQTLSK

[2] = molecular target: T2, E2-ZFYVE27^ΔHR3 (del 185-207aa) (human) (UniProt Q5T4F4); experiment: co-IP; NIH-3T3 co-transfected with GFP-Spastin and an E2-tagged ZFYVE27 construct; immunoprecipitation with E2-tag antibody or rabbit IgG (mock), Western blot with GFP antibody
T2 sequence: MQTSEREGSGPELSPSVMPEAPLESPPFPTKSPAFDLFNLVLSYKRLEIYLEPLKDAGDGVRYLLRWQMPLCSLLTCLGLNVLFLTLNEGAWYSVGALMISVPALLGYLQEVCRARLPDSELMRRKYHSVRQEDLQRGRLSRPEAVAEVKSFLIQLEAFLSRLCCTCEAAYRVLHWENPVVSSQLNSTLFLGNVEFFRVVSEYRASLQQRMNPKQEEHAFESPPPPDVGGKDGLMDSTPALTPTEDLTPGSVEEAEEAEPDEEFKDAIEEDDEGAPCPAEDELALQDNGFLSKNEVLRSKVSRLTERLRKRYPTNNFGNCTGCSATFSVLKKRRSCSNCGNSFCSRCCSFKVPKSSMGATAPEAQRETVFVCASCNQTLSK

[3] = molecular target: T1, ZFYVE27^WT (full-length ZFYVE27, E2- or c-Myc-tagged, in mammalian cells) (human); experiment: as above
ZFYVE27^150-250 (human) = molecular target: T3, ZFYVE27^150-250 (human) (UniProt Q5T4F4); experiment: two-hybrid; direct Y2H: bait (pGBKT7, deletion constructs or full length) and prey (pGADT7, full-length ZFYVE27) co-transformed into AH109; growth on SD/-Leu/-Trp/-His/-Ade and X-α-Gal
T3 sequence: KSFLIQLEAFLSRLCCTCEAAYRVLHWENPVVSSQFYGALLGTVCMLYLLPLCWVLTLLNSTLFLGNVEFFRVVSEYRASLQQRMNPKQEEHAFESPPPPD

[4] = molecular target: T4, ZFYVE27-ΔHR3 (deletion of HR3 in ZFYVE27^1-335 construct) (human) (UniProt Q5T4F4); experiment: as above
T4 sequence: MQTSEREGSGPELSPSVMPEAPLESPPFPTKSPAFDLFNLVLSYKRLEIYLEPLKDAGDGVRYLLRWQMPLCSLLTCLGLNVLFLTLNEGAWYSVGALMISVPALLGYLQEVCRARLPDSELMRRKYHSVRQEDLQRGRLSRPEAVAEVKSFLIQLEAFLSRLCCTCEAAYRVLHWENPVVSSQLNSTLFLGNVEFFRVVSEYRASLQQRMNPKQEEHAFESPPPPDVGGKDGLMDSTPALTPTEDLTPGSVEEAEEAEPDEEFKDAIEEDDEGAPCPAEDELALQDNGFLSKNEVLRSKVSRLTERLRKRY

ZFYVE27^1-184 (human) = molecular target: T5, ZFYVE27^1-184 (human) (UniProt Q5T4F4); experiment: as above
T5 sequence: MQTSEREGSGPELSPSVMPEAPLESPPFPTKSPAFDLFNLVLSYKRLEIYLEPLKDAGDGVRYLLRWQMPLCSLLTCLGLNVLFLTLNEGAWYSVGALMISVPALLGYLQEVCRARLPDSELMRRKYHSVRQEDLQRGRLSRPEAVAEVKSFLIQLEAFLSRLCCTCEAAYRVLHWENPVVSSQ

[5] = molecular target: full-length human ZFYVE27 (yeast two-hybrid fusion) (human) (UniProt Q5T4F4); experiment: as above
[6] = molecular target: T2, E2-ZFYVE27^ΔHR3 (del 185-207aa) (human); experiment: co-IP; NIH-3T3 transiently co-transfected; lysates immunoprecipitated with E2 tag antibody, immunoblot with c-Myc tag antibody; mock with non-specific IgG
[7] = molecular target: T6, E2-ZFYVE27^ΔN(150-404aa) (human) (UniProt Q5T4F4); experiment: as above
T6 sequence: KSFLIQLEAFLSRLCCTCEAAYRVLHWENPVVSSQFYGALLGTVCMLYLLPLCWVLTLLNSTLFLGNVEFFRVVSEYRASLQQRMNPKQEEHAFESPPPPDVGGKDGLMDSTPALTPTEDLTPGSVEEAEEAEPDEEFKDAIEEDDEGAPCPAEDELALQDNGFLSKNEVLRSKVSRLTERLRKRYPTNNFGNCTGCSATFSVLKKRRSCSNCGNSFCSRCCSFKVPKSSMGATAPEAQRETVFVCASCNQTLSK

[8] = molecular target: T1, ZFYVE27^WT (full-length ZFYVE27, E2- or c-Myc-tagged, in mammalian cells) (human); experiment: as above
[9] = molecular target: T7, E2-ZFYVE27^ΔC(1-150aa) (human) (UniProt Q5T4F4); experiment: as above
T7 sequence: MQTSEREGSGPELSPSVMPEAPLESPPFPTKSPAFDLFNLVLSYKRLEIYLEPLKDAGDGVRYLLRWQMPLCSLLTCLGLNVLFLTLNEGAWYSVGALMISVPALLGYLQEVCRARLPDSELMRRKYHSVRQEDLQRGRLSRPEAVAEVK

B1: E2-ZFYVE27^ΔN(150-404aa) (domain or fragment, UniProt Q5T4F4-2 150-404)
chain: KSFLIQLEAFLSRLCCTCEAAYRVLHWENPVVSSQFYGALLGTVCMLYLLPLCWVLTLLNSTLFLGNVEFFRVVSEYRASLQQRMNPKQEEHAFESPPPPDVGGKDGLMDSTPALTPTEDLTPGSVEEAEEAEPDEEFKDAIEEDDEGAPCPAEDELALQDNGFLSKNEVLRSKVSRLTERLRKRYPTNNFGNCTGCSATFSVLKKRRSCSNCGNSFCSRCCSFKVPKSSMGATAPEAQRETVFVCASCNQTLSK
- binding [1]: binds

B2: E2-ZFYVE27^ΔC(1-150aa) (domain or fragment, UniProt Q5T4F4-2 1-150)
chain: MQTSEREGSGPELSPSVMPEAPLESPPFPTKSPAFDLFNLVLSYKRLEIYLEPLKDAGDGVRYLLRWQMPLCSLLTCLGLNVLFLTLNEGAWYSVGALMISVPALLGYLQEVCRARLPDSELMRRKYHSVRQEDLQRGRLSRPEAVAEVK
- binding [1]: binds

B3: E2-ZFYVE27^ΔHR3 (del 185-207aa) (protein, UniProt Q5T4F4-2)
chain: MQTSEREGSGPELSPSVMPEAPLESPPFPTKSPAFDLFNLVLSYKRLEIYLEPLKDAGDGVRYLLRWQMPLCSLLTCLGLNVLFLTLNEGAWYSVGALMISVPALLGYLQEVCRARLPDSELMRRKYHSVRQEDLQRGRLSRPEAVAEVKSFLIQLEAFLSRLCCTCEAAYRVLHWENPVVSSQLNSTLFLGNVEFFRVVSEYRASLQQRMNPKQEEHAFESPPPPDVGGKDGLMDSTPALTPTEDLTPGSVEEAEEAEPDEEFKDAIEEDDEGAPCPAEDELALQDNGFLSKNEVLRSKVSRLTERLRKRYPTNNFGNCTGCSATFSVLKKRRSCSNCGNSFCSRCCSFKVPKSSMGATAPEAQRETVFVCASCNQTLSK
- binding [1]: binds

B4: GFP-Spastin (protein, UniProt Q9UBP0 1-616)
chain: MNSPGGRGKKKGSGGASNPVPPRPPPPCLAPAPPAAGPAPPPESPHKRNLYYFSYPLFVGFALLRLVAFHLGLLFVWLCQRFSRALMAAKRSSGAAPAPASASAPAPVPGGEAERVRVFHKQAFEYISIALRIDEDEKAGQKEQAVEWYKKGIEELEKGIAVIVTGQGEQCERARRLQAKMMTNLVMAKDRLQLLEKMQPVLPFSKSQTDVYNDSTNLACRNGHLQSESGAVPKRKDPLTHTSNSLPRSKTVMKTGSAGLSGHHRAPSYSGLSMVSGVKQGSGPAPTTHKGTPKTNRTNKPSTPTTATRKKKDLKNFRNVDSNLANLIMNEIVDNGTAVKFDDIAGQDLAKQALQEIVILPSLRPELFTGLRAPARGLLLFGPPGNGKTMLAKAVAAESNATFFNISAASLTSKYVGEGEKLVRALFAVARELQPSIIFIDEVDSLLCERREGEHDASRRLKTEFLIEFDGVQSAGDDRVLVMGATNRPQELDEAVLRRFIKRVYVSLPNEETRLLLLKNLLCKQGSPLTQKELAQLARMTDGYSGSDLTALAKDAALGPIRELKPEQVKNMSASEMRNIRLSDFTESLKKIKRSVSPQTLEAYIRWNKDFGDTTV
- binding [2]: binds
- binding [3]: binds

B5: full-length human ZFYVE27 (yeast two-hybrid fusion) (protein, UniProt Q5T4F4-2 1-404)
chain: MQTSEREGSGPELSPSVMPEAPLESPPFPTKSPAFDLFNLVLSYKRLEIYLEPLKDAGDGVRYLLRWQMPLCSLLTCLGLNVLFLTLNEGAWYSVGALMISVPALLGYLQEVCRARLPDSELMRRKYHSVRQEDLQRGRLSRPEAVAEVKSFLIQLEAFLSRLCCTCEAAYRVLHWENPVVSSQFYGALLGTVCMLYLLPLCWVLTLLNSTLFLGNVEFFRVVSEYRASLQQRMNPKQEEHAFESPPPPDVGGKDGLMDSTPALTPTEDLTPGSVEEAEEAEPDEEFKDAIEEDDEGAPCPAEDELALQDNGFLSKNEVLRSKVSRLTERLRKRYPTNNFGNCTGCSATFSVLKKRRSCSNCGNSFCSRCCSFKVPKSSMGATAPEAQRETVFVCASCNQTLSK
- binding (ZFYVE27^150-250 (human)): binds
- binding [4]: no binding
- binding (ZFYVE27^1-184 (human)): binds weakly
- binding [5]: binds

B6: ZFYVE27^WT (full-length ZFYVE27, E2- or c-Myc-tagged, in mammalian cells) (natural protein, human, UniProt Q5T4F4-2 1-404, looked up)
chain: MQTSEREGSGPELSPSVMPEAPLESPPFPTKSPAFDLFNLVLSYKRLEIYLEPLKDAGDGVRYLLRWQMPLCSLLTCLGLNVLFLTLNEGAWYSVGALMISVPALLGYLQEVCRARLPDSELMRRKYHSVRQEDLQRGRLSRPEAVAEVKSFLIQLEAFLSRLCCTCEAAYRVLHWENPVVSSQFYGALLGTVCMLYLLPLCWVLTLLNSTLFLGNVEFFRVVSEYRASLQQRMNPKQEEHAFESPPPPDVGGKDGLMDSTPALTPTEDLTPGSVEEAEEAEPDEEFKDAIEEDDEGAPCPAEDELALQDNGFLSKNEVLRSKVSRLTERLRKRYPTNNFGNCTGCSATFSVLKKRRSCSNCGNSFCSRCCSFKVPKSSMGATAPEAQRETVFVCASCNQTLSK
notes: numbers count on: this 404-residue isoform; Each copy carries only one tag: E2 (vector pQM-N-Tag A) or six c-Myc tags (vector pCS2-myc); The two differently tagged copies are written as one molecule because the protein is tested against itself; With the E2-tagged deletion constructs the c-Myc copy was used; with GFP-Spastin and in the sucrose gradient the E2 copy; also called E2-ZFYVE27^WT; …
- binding [6]: binds
- binding [7]: binds
- binding [8]: binds
- binding [9]: binds
- binding [1]: binds
